Data: patent US20190127440A1 (VIB VZW, published 2019)

Target: T1, human TSLPR ectodomain (extracellular fragment, NP_071431.2 residue 1-221), C-terminal His-tag (human, UniProt Q9HC73 25-221)
T1 construct: range 25-221; Produced in HEK293S MGAT1-/- cells; also called TSLPR extracellular part; not shown: C-terminal His-tag of the pcDNA4/TO construct
T1 sequence (looked up): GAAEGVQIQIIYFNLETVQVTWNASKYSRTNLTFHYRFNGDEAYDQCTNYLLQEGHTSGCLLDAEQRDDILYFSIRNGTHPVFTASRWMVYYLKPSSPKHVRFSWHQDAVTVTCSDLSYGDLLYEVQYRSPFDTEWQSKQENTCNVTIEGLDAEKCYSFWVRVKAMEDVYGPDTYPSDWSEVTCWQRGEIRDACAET
Experiment: biolayer interferometry (Octet RED96), biotinylated TSLP on streptavidin biosensors, 1:1 model, average of three replicates

Kd: 32 nM | koff: 0.0052 s⁻¹ | kon: 170000 M⁻¹ s⁻¹
B1: C-terminally biotinylated human TSLP_R127A_R130S (pHL-TSLP_R127A_R130S-AVITAG construct) (ligand)
chain: not shown
modifications: specific C-terminal in vivo biotinylation on the AVITAG
notes: Made in HEK293T cells with BirA co-transfection; immobilised on streptavidin biosensors for BLI; also called biotinylated TSLP; not shown: C-terminal AVITAG (and purification tag) of the pHL-AVITAG vector
